Measurements taken from the supplement of paper PMC4166925.
± gives the standard deviation of the averaged measurements. Whole data set: some 33,000 sequences, median “E-score (dimensionless, -0.5 to 0.5)” near -0.046, cut for the highest 2% near 0.36. This is one part of the list.

tested on: T1, SpTbr T-box DNA-binding domain (GST fusion); experiment: PBM E-score of 8-mer (E-score (dimensionless, -0.5 to 0.5)); Tbr is Tbrain of the sea star Patiria miniata (Pm) or the sea urchin Strongylocentrotus purpuratus (Sp); higher = stronger binding preference; most listed sequences are background and not binding sites; conditions: the construct has about 5 more residues each side
T1 sequence: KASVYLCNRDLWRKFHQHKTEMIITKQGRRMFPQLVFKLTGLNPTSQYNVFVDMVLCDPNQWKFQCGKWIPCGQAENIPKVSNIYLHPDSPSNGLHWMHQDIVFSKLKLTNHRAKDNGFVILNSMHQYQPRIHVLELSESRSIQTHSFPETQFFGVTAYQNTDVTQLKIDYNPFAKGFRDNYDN
How it was run: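 Each ungapped 8-mer received an enrichment E-score from the Universal PBM Analysis Suite, averaged over duplicate arrays. The proteins were Tbr T-box DNA-binding domains, covering the whole T-box plus about five flanking residues, fused to GST and expressed in BL21 E. coli at 20 °C before glutathione affinity purification. Universal Agilent oligonucleotide arrays were made double-stranded by primer extension and incubated with 200 nM protein in PBS (pH 7.5). The arrays were then scanned and quantified, and every 8-mer was scored from probe intensities.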

Sequence	PBM E-score of 8-mer
AAACCCGT	0.111 ± 0.068
CCGGCTTA	-0.222 ± 0.0053
GATTCAGA	-0.233 ± 0.061
CCCTACAG	-0.178 ± 0.018
ATCTTCAC	0.267 ± 0.02
ACGCTTCA	0.059 ± 0.061
ACATATGT	0.178 ± 0.093
AGCTCCCC	-0.247 ± 0.059
CGATCTGA	0.0733 ± 0.0072
ACAGCGGC	-0.0426 ± 0.039
ACGGTGTC	0.271 ± 0.051
GACCGCTC	-0.228 ± 0.018
CTCTCCAG	-0.12 ± 0.028
CTAGCTCA	-0.133 ± 0.032
CATGGATC	-0.148 ± 0.015
AGTATGCC	-0.192 ± 0.0078
AGGAGCAA	-0.0744 ± 0.025
CTGGTCGA	-0.0516 ± 0.067
GATAGTTA	0.0786 ± 0.03
AATTCGAA	-0.258 ± 0.054
ACGGTTTC	0.0626 ± 0.061
ACGTCTCA	-0.0871 ± 0.0036
GCACATAC	0.164 ± 0.03
CACGTGAG	0.13 ± 0.053
GCCCGATA	-0.0847 ± 0.018

Sequence	PBM E-score of 8-mer
CCGCAAAG	-0.233 ± 0.015
CGTAGTAA	-0.122 ± 0.066
AATCCAGG	-0.0837 ± 0.024
AATGCGAT	0.0396 ± 0.031
ACAGACGA	-0.235 ± 0.0019
TCCGAGCA	-0.352 ± 0.073
ACCTAGCA	0.188 ± 0.034
CCAAAGGC	-0.0125 ± 0.018
AAGATATG	-0.00409 ± 0.01
GAAGGCAA	-0.163 ± 0.024
ACGTCAGC	-0.0927 ± 0.059
AGCCAATC	-0.0978 ± 0.065
GCTATGAC	0.0634 ± 0.025
CCGTCACG	0.212 ± 0.011
GAGTGGAA	0.102 ± 0.085
AGGGCCAA	-0.293 ± 0.026
CAGGGATC	-0.17 ± 0.046
GACAAATA	0.0842 ± 0.084
AGGACTCG	-0.0393 ± 0.1
TGATTGCA	0.15 ± 0.051
ACCCGCAC	0.268 ± 0.032
CAGACGGG	0.0162 ± 0.03
AGGATTGC	0.00818 ± 0.037
AAATCCCG	-0.186 ± 0.035
CGCCGCTC	-0.203 ± 0.064

Sequence	PBM E-score of 8-mer
ATGATATC	0.0897 ± 0.021
ATGAGCCA	-0.174 ± 0.024
CCCCACGC	-0.0704 ± 0.008
CCCGCCTA	-0.0474 ± 0.13
GGATTAAC	-0.0379 ± 0.053
AATAAGAC	-0.109 ± 0.095
CGTCTAGC	-0.0785 ± 0.026
AAGCCCGA	-0.0877 ± 0.072
CGAGAATC	0.1836 ± 0.0013
ATCGACCA	0.126 ± 0.0048
ACACAATC	0.24 ± 0.033
TGTCAGAA	0.117 ± 0.028
GCTACAAA	-0.0568 ± 0.089
ACGTTGAA	-0.0523 ± 0.011
ATGCAACC	-0.0431 ± 0.029
CACTATTC	0.0129 ± 0.0026
CATGCACG	0.0848 ± 0.014
AAGGATGA	-0.119 ± 0.028
AAGTTCGG	-0.0374 ± 0.049
CTGGACCA	-0.132 ± 0.025
AAGAGATG	-0.0558 ± 0.033
GGTGCCAA	0.447 ± 0.0064
ACACTTGG	0.367 ± 0.022
ATCGGCTC	-0.125 ± 0.044
ACTTCGAG	0.0665 ± 0.024

Sequence	PBM E-score of 8-mer
AGACGTTA	-0.0945 ± 0.015
GACCTTGA	-0.145 ± 0.019
AGGTAGGG	-0.0789 ± 0.073
AAACATCA	-0.0262 ± 0.036
AGAATTCC	-0.127 ± 0.066
GGGTCTAC	-0.2 ± 0.0073
GGTCAGGA	-0.11 ± 0.019
GGATAGCA	0.1153 ± 0.001
CTTCCTAC	-0.141 ± 0.051
CTGTTAGA	0.11 ± 0.12
CTAACTTA	-0.176 ± 0.066
GAACCAGC	-0.0698 ± 0.026
ATAGTGTG	0.388 ± 0.026
GCACCTGC	0.388 ± 0.024
CACGGATC	-0.042 ± 0.011
ACCTAAAT	0.0126 ± 0.068
ATCGCAGA	-0.0763 ± 0.072
ACTAAGCG	-0.1 ± 0.1
GTGAGTGA	0.221 ± 0.0052
ACCCTAAC	0.0196 ± 0.071
ATCGTTTG	0.0457 ± 0.048
AATGATAG	-0.165 ± 0.09
GCCAAAGC	-0.00963 ± 0.048
GACTACAC	0.205 ± 0.029
AAATGGTC	-0.301 ± 0.033

Sequence	PBM E-score of 8-mer
TACCGACA	0.0527 ± 0.056
ATCTCAGC	0.0378 ± 0.026
AAAGCCAT	-0.201 ± 0.015
CGCATTCC	-0.0839 ± 0.0078
CACGGCAA	0.0654 ± 0.0021
CACAGGGC	-0.0221 ± 0.018
AACATCAG	-0.0764 ± 0.029
TACGGAAA	-0.173 ± 0.034
CGTGCCCA	-0.0949 ± 0.11
AGCCCATC	-0.334 ± 0.032
ACGACACT	0.257 ± 0.0054
ACAGTCGC	0.205 ± 0.013
CCACTCTC	-0.0486 ± 0.035
CCGACCAA	-0.0681 ± 0.008
GGGCAGCA	0.0443 ± 0.021
AGGCTCGA	-0.0409 ± 0.026
GCAAGACA	0.054 ± 0.0058
GTTAATAA	0.0847 ± 0.12
CTGTCGAC	0.238 ± 0.062
CCACGGCG	0.065 ± 0.04
TGGCCCAA	-0.205 ± 0.024
ACGAGTGG	0.126 ± 0.025
AGTGATTG	0.0625 ± 0.081
CCGGTGGA	-0.211 ± 0.017
ATTCTAGA	-0.196 ± 0.077

Sequence	PBM E-score of 8-mer
ACGTCGTA	0.00267 ± 0.049
AAGGTAGG	-0.118 ± 0.012
GAGGAAAA	-0.142 ± 0.043
CGATCATA	-0.121 ± 0.017
AACGGTCT	-0.181 ± 0.035
AAACACTG	0.031 ± 0.0022
CAGGTCAA	-0.18 ± 0.073
GGACGCCC	-0.242 ± 0.01
TGGTGAAA	0.0283 ± 0.014
CCAGGTCG	0.054 ± 0.0014
TAAAACCA	-0.0507 ± 0.099
ATCTGCGC	-0.055 ± 0.014
ACGCGCTA	0.315 ± 0.0089
GCATGCAA	-0.000435 ± 0.026
CAGGCAAG	-0.06 ± 0.0088
CTGCAGCA	0.039 ± 0.046
CGCCGCCC	-0.0882 ± 0.041
CTTCAGTA	0.0172 ± 0.023
ATCCCACA	0.243 ± 0.0088
ACGGGGTC	-0.0596 ± 0.061
ATTCAGCC	-0.133 ± 0.0052
ACGGCGCA	-0.00177 ± 0.0056
CGAAAGAC	-0.0164 ± 0.091
GGTGTAAC	0.349 ± 0.014
CATTAGTC	-0.222 ± 0.11

Sequence	PBM E-score of 8-mer
ACCGTTGG	0.127 ± 0.053
ACATGAGG	-0.0182 ± 0.074
CTTTTACA	0.218 ± 0.041
GCAGGCCA	-0.227 ± 0.022
GAATATGA	-0.0965 ± 0.0023
AGGGTCTA	-0.0468 ± 0.13
GAAAGAGC	-0.0245 ± 0.041
CCCAAACG	-0.126 ± 0.0051
ATGCACGG	-0.231 ± 0.075
CCCACGGC	0.0553 ± 0.013
CGCTTCAG	-0.0504 ± 0.046
GCACCTCA	0.343 ± 0.02
CATCTTAA	-0.00458 ± 0.041
CGAGGTAG	-0.0907 ± 0.021
AACCTGAG	0.102 ± 0.046
CTCAACGC	0.142 ± 0.05
AAATGACG	0.0876 ± 0.029
ACAACCCA	0.052 ± 0.063
AGTGCATC	-0.167 ± 0.041
AAGGGAGG	-0.321 ± 0.021
AAGGCGGA	4e-05 ± 0.05
CGTCGACG	0.0187 ± 0.13
